# Source: paper PMC4336329 (PLoS ONE, 2015)
# In all, about 310,000 compounds went through this assay and about 14,000 (4.5%) showed an effect of 50% or more. The effect is printed as a negative number. The list shows a part of the results.
# Biological target: human ether-à-go-go-related gene (hERG) potassium channel (human, UniProt Q12809)
# Test: primary screen, population patch clamp on CHO cells stably expressing hERG
# 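Note: peak tail current of the secondary pulse compared with the same well before compound.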
# human ether-à-go-go-related gene (hERG) potassium channel, sequence (Q12809 whole entry, looked up): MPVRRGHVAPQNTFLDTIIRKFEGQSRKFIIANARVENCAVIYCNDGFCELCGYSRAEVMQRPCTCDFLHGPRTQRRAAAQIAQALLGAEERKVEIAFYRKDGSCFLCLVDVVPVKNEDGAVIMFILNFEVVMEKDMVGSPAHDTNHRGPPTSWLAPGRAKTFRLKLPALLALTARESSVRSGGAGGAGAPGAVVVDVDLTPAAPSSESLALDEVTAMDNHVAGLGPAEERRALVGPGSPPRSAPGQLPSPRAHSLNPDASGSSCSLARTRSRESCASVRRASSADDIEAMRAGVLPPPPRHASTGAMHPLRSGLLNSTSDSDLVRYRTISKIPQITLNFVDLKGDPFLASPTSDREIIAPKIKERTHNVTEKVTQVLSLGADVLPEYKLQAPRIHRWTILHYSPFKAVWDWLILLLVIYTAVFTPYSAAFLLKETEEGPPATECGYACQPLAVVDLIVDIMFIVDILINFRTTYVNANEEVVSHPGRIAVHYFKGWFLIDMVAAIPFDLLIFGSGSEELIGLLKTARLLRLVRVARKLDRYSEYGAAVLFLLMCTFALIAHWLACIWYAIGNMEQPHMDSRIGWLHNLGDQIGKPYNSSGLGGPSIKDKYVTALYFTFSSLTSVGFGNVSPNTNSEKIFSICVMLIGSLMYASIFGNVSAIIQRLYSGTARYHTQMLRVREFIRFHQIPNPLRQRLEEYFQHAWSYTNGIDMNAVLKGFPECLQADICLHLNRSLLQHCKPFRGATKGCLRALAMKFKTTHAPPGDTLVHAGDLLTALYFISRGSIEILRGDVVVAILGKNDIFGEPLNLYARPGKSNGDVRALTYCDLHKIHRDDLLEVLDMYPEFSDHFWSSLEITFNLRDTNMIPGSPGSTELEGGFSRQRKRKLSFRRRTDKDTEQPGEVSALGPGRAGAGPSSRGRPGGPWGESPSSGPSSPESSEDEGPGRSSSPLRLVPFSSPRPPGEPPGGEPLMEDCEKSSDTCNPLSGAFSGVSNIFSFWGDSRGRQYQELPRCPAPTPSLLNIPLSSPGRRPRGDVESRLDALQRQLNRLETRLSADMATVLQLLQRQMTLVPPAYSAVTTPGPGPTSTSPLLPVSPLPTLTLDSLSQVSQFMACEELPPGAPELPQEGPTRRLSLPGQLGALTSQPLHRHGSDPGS
row,Structure (SMILES),"hERG current change (%, negative = inhibition) at 10uM [%]"
1,COC(=O)CN=Cc1c(O)n(-c2ccc(Cl)cn2)c(=O)c2ccccc12,-14.4
2,Cc1ccc(CNC(=O)CSc2nc3n[nH]c(C)c3c(=N)n2-c2cccc(C)c2)cc1,-29.2
3,COc1ccc(OC)c(NC(=O)C2COc3ccccc3O2)c1 (centres unmarked),7.46
4,O=C(CCn1c(SCC(=O)c2ccccc2)nc2ccccc2c1=O)NCc1ccc(F)cc1,-3.91
5,O=C(COC(=O)CNS(=O)(=O)c1ccc(Br)cc1Cl)NC1CC1,-0.681
6,O=C(c1ccc2c(=O)n3c(nc2c1)CCCCC3)N1CCN(c2ccc(F)cc2)CC1,-42.1
7,CCN(Cc1cnn(C)c1)C(=O)c1cc(COc2ccc3c(c2)CCCC3)on1,-18.4
8,CCC1(C)Nc2ccccc2C(=O)N1O (centres unmarked),14.4
9,COc1ccccc1/C=C/C=N/NC(=O)CCn1nnc2ccccc21,14.6
10,Cn1cnnc1SCC(=O)Nc1ccc2nc(SCc3ccccc3Cl)sc2c1,-8.39
11,CN(C)CCCNC(=S)N(CCO)Cc1cc2cc3c(cc2[nH]c1=O)OCO3,13.4
12,O=C(Cc1cn(-c2ccccc2)nc1-c1ccccc1)N1CCCCC1,-18.3
13,CN(CCOc1ccccc1)C(=O)c1cc(COc2c(F)cccc2F)on1,1.44
14,COc1ccc(CCNCc2cc(C)n(-c3ccc(OC)cc3)c2C)cc1.O=C(O)C(=O)O,-41.7
15,Cc1ccc(CN2CCC(n3nccc3NC(=O)c3ccc4c(c3)OCO4)CC2)o1,-17.2
16,COc1c(C)cc(C(=O)C2CCCN(C(=O)c3cc(C)on3)C2)cc1C (centres unmarked),-16.3
17,CC(C)c1nnc(NC(=O)CCC(=O)N2CCN(C3c4ccccc4-c4ccccc43)CC2)s1,2.78
18,O=C(NCC(=O)N1CCC2(CC1)NCCc1[nH]cnc12)c1ccccc1F,7.1
19,COCCOC(=O)c1[nH]c2c(c1C)C(=O)CC(c1ccc(N(C)C)cc1)C2 (centres unmarked),2.41
20,CCC(=O)Nc1c(-c2ccc(OC)cc2)c(=O)c2ccccc2n1C,9.4
21,CC1(c2ccccc2)NC(=O)N(CC(=O)Nc2ccccc2C(=O)N2CCCCC2)C1=O (centres unmarked),19.7
22,COc1ccccc1OCCC(=O)OCC(=O)c1[nH]c(C)c(C(C)=O)c1C,-8.55

row,Structure (SMILES),"hERG current change (%, negative = inhibition) at 10uM [%]"
1,COc1ccc(CN2CCC(n3nccc3NC(=O)C3CC3)CC2)cc1O,-58.8
2,O=S(=O)(NCCSc1ccccc1)c1cccs1,-13.9
3,CC(C)Oc1ccccc1OCCCOc1cccc2cccnc12,-32.7
4,CC(=O)Nc1cccc(NC(=O)CSc2nccn2Cc2ccccc2)c1,9.95
5,O=C(COc1ccc(F)cc1Br)NCc1ccccn1,-1.47
6,CCOC(=O)C1=C(N)OC2=C(C(=O)CC(C)(C)C2)C1c1ccc(C)s1 (centres unmarked),-42.3
7,COc1cccc(OC)c1C(=O)NC(=S)NCc1ccccc1,16.6
8,O=C(Nc1cccc(S(=O)(=O)NC2=NCCC2)c1)c1ccc(=O)[nH]c1,10.7
9,Cc1ccc(C(=O)N/C(=C\c2ccco2)C(=O)NCCc2c[nH]c3ccccc23)cc1,-39.4
10,Cc1cccc(NC(=O)c2ccccc2C(=O)Nc2cccc(C)c2)c1,-5.94
11,CC1=C([N+](=O)[O-])C(c2ccc3c(c2)OCO3)N(C)C(=O)N1C (centres unmarked),-0.318
12,O=Cc1ccnc(-c2ccc(OC(=O)c3ccco3)cc2)n1,7.26
13,COc1ccc(N(CC(=O)Nc2ccc(Cl)cc2)S(=O)(=O)c2c(C)n[nH]c2C)cc1,-20.4
14,O=C(O)CCNS(=O)(=O)c1ccccc1C(F)(F)F,9.99
15,C=CCCC(=O)NC1CCCc2c1cnn2-c1ccccc1F (centres unmarked),-2.92
16,O=C(O)c1cccc(S(=O)(=O)NCc2cccs2)c1,4.57
17,O=C(Oc1ccc2ccccc2c1Cl)N1CCCCCC1,18.9
18,COC1=C(Nc2ccccc2OC)C(=O)c2ccccc2C1=O,0.0125
19,COc1ccc(C(NC(=O)CC(C)C)NC(=O)CC(C)C)cc1OC,-4.3
20,COc1ccc(C(=O)Cn2nnc(-c3cccs3)n2)cc1,-10.9
21,O=C(Nc1cccc(-c2csc(Nc3cccc(C(F)(F)F)c3)n2)c1)c1ccccc1,0.347
22,Cc1cccc(C(=O)N[C@H](C(=O)Nc2ccc(C)c(S(=O)(=O)N(C)C)c2)C(C)C)c1,44.2
